A lower IC50 marks a more sensitive line; a fit beyond the top or the lowest dose is shown as a bound at that dose. AUC, from the same fit, is the share of area under the viability curve across the 256-fold dose range; it is 1 without any effect and falls as sensitivity rises. For part of these data: Any top dose called inferred was derived from the fitted curves, not read from the paper. For part of these data: Where an entry number is given, a second screen of the drug exists; the two often differ.
What was measured:
Experiment in all cases: Viability of human cancer cell lines after 72 h of drug (GDSC screen)
ZM-447439 = compound: COc1cc2c(Nc3ccc(NC(=O)c4ccccc4)cc3)ncnc2cc1OCCCN1CCOCC1 [ZM-447439]; settings: top dose inferred
Procedure: (§1)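 Human cancer cell lines in 384-well plates, medium with 10% serum, drug for 72 h over a 256-fold dose range (nine 2-fold or five 4-fold steps up to the top dose). Adherent lines were fixed and stained with the nucleic acid dye Syto60, suspension lines read with resazurin; signal relative to control wells, capped at 0 and 100%. One two-parameter sigmoid per drug and line, fitted in a mixed model over all curves with the slope shared within a line.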

PD-0332991 = compound: CC(=O)c1c(C)c2cnc(Nc3ccc(N4CCNCC4)cn3)nc2n(C2CCCC2)c1=O [PD-0332991]
Procedure: as §1

AZD6244 = compound: Cn1cnc2c(F)c(Nc3ccc(Br)cc3Cl)c(C(=O)NOCCO)cc21 [AZD6244]; settings: screen: GDSC drug entry 1062
Procedure: as §1

MY-M12 (leukaemia, suspension, top dose 4 µM)
AUC (ZM-447439): 0.829 | IC50 (ZM-447439): 2.95 µM | AUC (PD-0332991): 0.78 | IC50 (PD-0332991): 1.87 µM | AUC (AZD6244): 0.98 | IC50 (AZD6244): > 4 µM

MZ1-PC (pancreas, adherent, top dose 4 µM)
AUC (ZM-447439): 0.896 | IC50 (ZM-447439): > 4 µM | AUC (PD-0332991): 0.735 | IC50 (PD-0332991): 1.4 µM | AUC (AZD6244): 0.811 | IC50 (AZD6244): 2.79 µM

MZ2-MEL (melanoma, adherent, top dose 4 µM)
AUC (ZM-447439): 0.821 | IC50 (ZM-447439): 2.87 µM | AUC (PD-0332991): 0.426 | IC50 (PD-0332991): 0.151 µM | AUC (AZD6244): 0.962 | IC50 (AZD6244): > 4 µM

MZ7-mel (melanoma, adherent, top dose 4 µM)
AUC (ZM-447439): 0.987 | IC50 (ZM-447439): > 4 µM | AUC (PD-0332991): 0.963 | IC50 (PD-0332991): > 4 µM | AUC (AZD6244): 0.777 | IC50 (AZD6244): 1.67 µM

Mo-T (hairy cell leukaemia, suspension, top dose 4 µM)
AUC (ZM-447439): 0.934 | IC50 (ZM-447439): > 4 µM | AUC (PD-0332991): 0.452 | IC50 (PD-0332991): 0.185 µM | AUC (AZD6244): 0.983 | IC50 (AZD6244): > 4 µM

NALM-6 (B-cell leukaemia, suspension, top dose 4 µM)
AUC (ZM-447439): 0.644 | IC50 (ZM-447439): 0.58 µM | AUC (PD-0332991): 0.832 | IC50 (PD-0332991): 2.01 µM | AUC (AZD6244): 0.973 | IC50 (AZD6244): > 4 µM

NAMALWA (Burkitt lymphoma, suspension, top dose 4 µM)
AUC (ZM-447439): 0.973 | IC50 (ZM-447439): > 4 µM | AUC (PD-0332991): 0.954 | IC50 (PD-0332991): > 4 µM | AUC (AZD6244): 0.981 | IC50 (AZD6244): > 4 µM

NB1 (neuroblastoma, semi-adherent, top dose 4 µM)
AUC (ZM-447439): 0.897 | IC50 (ZM-447439): > 4 µM | AUC (PD-0332991): 0.836 | IC50 (PD-0332991): 3.04 µM | AUC (AZD6244): 0.984 | IC50 (AZD6244): > 4 µM

NB5 (neuroblastoma, adherent, top dose 4 µM)
AUC (ZM-447439): 0.816 | IC50 (ZM-447439): 2.25 µM | AUC (PD-0332991): 0.843 | IC50 (PD-0332991): 2.9 µM | AUC (AZD6244): 0.808 | IC50 (AZD6244): 2.1 µM

NB6 (neuroblastoma, adherent, top dose 4 µM)
AUC (ZM-447439): 0.9 | IC50 (ZM-447439): > 4 µM | AUC (PD-0332991): 0.72 | IC50 (PD-0332991): 1.23 µM | AUC (AZD6244): 0.983 | IC50 (AZD6244): > 4 µM

NB7 (neuroblastoma, adherent, top dose 4 µM)
AUC (ZM-447439): 0.92 | IC50 (ZM-447439): > 4 µM | AUC (PD-0332991): 0.986 | IC50 (PD-0332991): > 4 µM | AUC (AZD6244): 0.986 | IC50 (AZD6244): > 4 µM

NB10 (neuroblastoma, adherent, top dose 4 µM)
AUC (ZM-447439): 0.908 | IC50 (ZM-447439): > 4 µM | AUC (PD-0332991): 0.727 | IC50 (PD-0332991): 1.08 µM | AUC (AZD6244): 0.903 | IC50 (AZD6244): > 4 µM

NB12 (neuroblastoma, adherent, top dose 4 µM)
AUC (ZM-447439): 0.947 | IC50 (ZM-447439): > 4 µM | AUC (PD-0332991): 0.908 | IC50 (PD-0332991): > 4 µM | AUC (AZD6244): 0.978 | IC50 (AZD6244): > 4 µM

NB13 (neuroblastoma, adherent, top dose 4 µM)
AUC (ZM-447439): 0.917 | IC50 (ZM-447439): > 4 µM | AUC (PD-0332991): 0.915 | IC50 (PD-0332991): > 4 µM | AUC (AZD6244): 0.989 | IC50 (AZD6244): > 4 µM

NB14 (neuroblastoma, adherent, top dose 4 µM)
AUC (ZM-447439): 0.702 | IC50 (ZM-447439): 0.888 µM | AUC (PD-0332991): 0.507 | IC50 (PD-0332991): 0.262 µM | AUC (AZD6244): 0.986 | IC50 (AZD6244): > 4 µM

NB17 (neuroblastoma, adherent, top dose 4 µM)
AUC (ZM-447439): 0.85 | IC50 (ZM-447439): 3.74 µM | AUC (PD-0332991): 0.9 | IC50 (PD-0332991): > 4 µM | AUC (AZD6244): 0.984 | IC50 (AZD6244): > 4 µM

NB69 (neuroblastoma, adherent, top dose 4 µM)
AUC (ZM-447439): 0.874 | IC50 (ZM-447439): 3.14 µM | AUC (PD-0332991): 0.436 | IC50 (PD-0332991): 0.171 µM | AUC (AZD6244): 0.705 | IC50 (AZD6244): 0.872 µM

NB(TU)1-10 (neuroblastoma, adherent, top dose 4 µM)
AUC (ZM-447439): 0.989 | IC50 (ZM-447439): > 4 µM | AUC (PD-0332991): 0.991 | IC50 (PD-0332991): > 4 µM | AUC (AZD6244): 0.993 | IC50 (AZD6244): > 4 µM

NB-4 (acute myeloid leukaemia, suspension, top dose 4 µM)
AUC (ZM-447439): 0.805 | IC50 (ZM-447439): 1.59 µM | AUC (PD-0332991): 0.485 | IC50 (PD-0332991): 0.23 µM | AUC (AZD6244): 0.938 | IC50 (AZD6244): > 4 µM

NCC010 (kidney, adherent, top dose 4 µM)
AUC (ZM-447439): 0.929 | IC50 (ZM-447439): > 4 µM | AUC (PD-0332991): 0.779 | IC50 (PD-0332991): 1.76 µM | AUC (AZD6244): 0.986 | IC50 (AZD6244): > 4 µM

NCC021 (kidney, adherent, top dose 4 µM)
AUC (ZM-447439): 0.977 | IC50 (ZM-447439): > 4 µM | AUC (PD-0332991): 0.938 | IC50 (PD-0332991): > 4 µM | AUC (AZD6244): 0.98 | IC50 (AZD6244): > 4 µM

NCI-H23 (lung adenocarcinoma, adherent, top dose 4 µM)
AUC (ZM-447439): 0.931 | IC50 (ZM-447439): > 4 µM | AUC (PD-0332991): 0.862 | IC50 (PD-0332991): 3.37 µM | AUC (AZD6244): 0.943 | IC50 (AZD6244): > 4 µM

NCI-H28 (mesothelioma, adherent, top dose 4 µM)
AUC (ZM-447439): 0.918 | IC50 (ZM-447439): > 4 µM | AUC (PD-0332991): 0.809 | IC50 (PD-0332991): 2.94 µM | AUC (AZD6244): 0.938 | IC50 (AZD6244): > 4 µM

NCI-H64 (small cell lung carcinoma, suspension, top dose 4 µM)
AUC (ZM-447439): 0.969 | IC50 (ZM-447439): > 4 µM | AUC (PD-0332991): 0.989 | IC50 (PD-0332991): > 4 µM | AUC (AZD6244): 0.996 | IC50 (AZD6244): > 4 µM

NCI-H69 (small cell lung carcinoma, suspension, top dose 4 µM)
AUC (ZM-447439): 0.937 | IC50 (ZM-447439): > 4 µM | AUC (PD-0332991): 0.986 | IC50 (PD-0332991): > 4 µM | AUC (AZD6244): 0.986 | IC50 (AZD6244): > 4 µM

NCI-H82 (small cell lung carcinoma, suspension, top dose 4 µM)
AUC (ZM-447439): 0.867 | IC50 (ZM-447439): 3.29 µM | AUC (PD-0332991): 0.977 | IC50 (PD-0332991): > 4 µM | AUC (AZD6244): 0.972 | IC50 (AZD6244): > 4 µM

NCI-H146 (small cell lung carcinoma, suspension, top dose 4 µM)
AUC (ZM-447439): 0.964 | IC50 (ZM-447439): > 4 µM | AUC (PD-0332991): 0.983 | IC50 (PD-0332991): > 4 µM | AUC (AZD6244): 0.99 | IC50 (AZD6244): > 4 µM

NCI-H187 (small cell lung carcinoma, suspension, top dose 4 µM)
AUC (ZM-447439): 0.985 | IC50 (ZM-447439): > 4 µM | AUC (PD-0332991): 0.988 | IC50 (PD-0332991): > 4 µM | AUC (AZD6244): 0.983 | IC50 (AZD6244): > 4 µM

NCI-H209 (small cell lung carcinoma, suspension, top dose 4 µM)
AUC (ZM-447439): 0.84 | IC50 (ZM-447439): 3.04 µM | AUC (PD-0332991): 0.715 | IC50 (PD-0332991): 1.07 µM | AUC (AZD6244): 0.963 | IC50 (AZD6244): > 4 µM

Reference: the supplement of paper PMC4967469
